Measured values: PubChem BioAssay (NCI)
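1) Cells in 96-well plates. 2) Compound, 48 h, 5 concentrations. 3) Linear interpolation between surrounding doses. 4) Unreached endpoint = highest concentration. The concentration for 50% growth inhibition is given as GI50. TGI marks complete inhibition of growth.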

Tested on: NCI-H322M lung
Assay: NCI-60 cell line screen, 48 h

`COc1ccc2[nH]cc(/C=N/Nc3ccnc4cc(Cl)ccc34)c2c1` was tested, and the GI50 was 1.56 µM and the TGI was 2.91 µM.

For `OC1CCN(CCCOc2c3ccccc3nc3c2oc2ccccc23)CC1`, the GI50 was 2.23 µM and the TGI was 10.6 µM.
